According to publication PMC4243993, “The role of zinc in the stability of the marginally stable IscU scaffold protein” (Protein Science : A Publication of the Protein Society, 2014):

Molecular target: T1, IscS (E. coli, UniProt P0A6B7 1-404, biotin (biotinylated IscS; site not stated))
T1 construct: IscS, cysteine desulfurase, the main partner of IscU; also called desulfurase IscS; biotinylated IscS
T1 sequence: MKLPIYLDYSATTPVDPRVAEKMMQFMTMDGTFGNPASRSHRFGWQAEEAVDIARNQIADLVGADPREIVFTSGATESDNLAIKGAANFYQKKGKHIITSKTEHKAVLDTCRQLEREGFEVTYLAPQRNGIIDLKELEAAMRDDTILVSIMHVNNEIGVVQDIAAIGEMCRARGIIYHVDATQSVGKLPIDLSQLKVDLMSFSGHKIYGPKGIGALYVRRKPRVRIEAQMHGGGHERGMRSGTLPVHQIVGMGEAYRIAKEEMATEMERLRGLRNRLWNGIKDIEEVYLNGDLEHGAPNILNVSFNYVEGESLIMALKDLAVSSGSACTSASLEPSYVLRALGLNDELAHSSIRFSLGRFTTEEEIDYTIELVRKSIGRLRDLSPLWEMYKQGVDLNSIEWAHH
Assay: BLI; biotinylated IscS immobilised on streptavidin-coated biosensors; IscU as purified (EDTA untreated), 0-5 uM; 25°C; 20 mM HEPES pH 7.5, 150 mM NaCl, 2 mM TCEP, 0.5 mg/mL BSA; aerobic; Octet Red
Details: both partners purified

Kd: 1500 ± 300 nM
B1: E. coli IscU_wt (natural protein)
chain: AYSEKVIDHYENPRNVGSFDNNDENVGSGMVGAPACGDVMKLQIKVNDEGIIEDARFKTYGCGSAIASSSLVTEWVKGKSLDEAQAIKNTDIAEELELPPVKIHCSILAEDAIKAAIADYKSKREAK
notes: IscU, iron-sulfur cluster scaffold protein of E. coli; wild type; also called IscU as purified; Zn^2+ free IscU; source: E. coli overexpression, purified (Ni-NTA, TEV cleavage from GST, Superdex 75 gel filtration)
